Experimental data reported in patent publication US11000038B2, “Pyridone compounds and agricultural and horticultural fungicides containing the same as active ingredients” (priority 2017, dated 2021).

How the values were obtained:
[1] = test system: cabbage Alternaria sooty spot fungi (Alternaia brassicicola); test: Test Example C: cabbage Alternaria sooty spot, spray treatment of cabbage plants; assay type: in vivo; conditions: for Test C control value: cabbage Alternaria sooty spot; for Test C control value class (cabbage Alternaria sooty spot): control value=100{1-(n/3)}
Source text: [Test Example C] Cabbage Alternaria Sooty Spot
Test plants (cabbage variety: Shikidori) were cultivated until the cotyledons extended after the sowing of seeds.
<Control Value> Control value=100{1−(n/3)}

[2] = test system: grape downy mildew fungus (Plasmopara viticola); test: Test Example G: grape downy mildew, spray treatment of grape plants; conditions: for Test G control value: grape downy mildew, 7 to 10 days after inoculation; for Test G control value class (grape downy mildew): 2.5 ml/pot, grape Neomuscat, 7 to 10 days from inoculation
[3] = test system: barley powdery mildew fungi (Blumeria graminis f. sp. hordei); test: Test Example D: barley powdery mildew, spray treatment of barley plants; conditions: for Test D control value: barley powdery mildew; for Test D control value class (barley powdery mildew): control value=100{1-(n/3)}
[4] = test system: gray mold fungi (Botrytis cinerea); test: Test Example B: tomato gray mold, spray treatment of tomato plants; conditions: for Test B control value: tomato gray mold; for Test B control value class (tomato gray mold): control value=100{1-(n/3)}
[5] = test system: wheat brown rust fungi (Puccinia recondita); test: Test Example E: wheat brown rust, spray treatment of wheat plants; assay type: in vivo; conditions: for Test E control value: wheat brown rust; for Test E control value class (wheat brown rust): control value=100{1-(n/3)}
[6] = spray treatment of cabbage plants
[7] = spray treatment of barley plants
[8] = spray treatment of tomato plants
[9] = spray treatment of wheat plants

Compound | Test C control value ([1]; spray treatment) | Test G control value ([2]; 250 ppm spray) | Test D control value ([3]; spray treatment) | Test B control value ([4]; spray treatment) | Test E control value ([5]; spray treatment) | also measured
Cc1cn(-c2ccccc2)c(-c2ccccc2C(F)(F)F)c(C)c1=O [Compound 581] | H (H shows the control value of more than 50%) | L (L shows the control value of 50% or less) | L (L shows the control value of 50% or less) | H (H shows the control value of more than 50%) | H (H shows the control value of more than 50%) | 
Cc1ccc(Cl)cc1-n1cc(Cl)c(=O)c(Br)c1-c1c(F)cc(F)cc1F [Compound 240] |  |  |  |  |  | Test C control value [1, 6]: H (H shows the control value of more than 50%); Test G control value ([2]; 250 ppm spray (2.5 ml/pot)): H (H shows the control value of more than 50%); Test D control value [3, 7]: L (L shows the control value of 50% or less); Test B control value [4, 8]: H (H shows the control value of more than 50%); Test E control value [5, 9]: H (H shows the control value of more than 50%)
Cc1cc(F)ccc1-c1c(Cl)c(=O)c(Br)cn1-c1ccccc1 [Compound 583] | H (H shows the control value of more than 50%) | L (L shows the control value of 50% or less) | L (L shows the control value of 50% or less) | H (H shows the control value of more than 50%) | H (H shows the control value of more than 50%) | 
CCc1ccccc1-n1cc(C)c(=O)c(CC)c1-c1ccccc1 [Compound 534] | H (H shows the control value of more than 50%) | L (L shows the control value of 50% or less) | L (L shows the control value of 50% or less) | H (H shows the control value of more than 50%) | L (L shows the control value of 50% or less) | 
Cc1ccc(Br)cc1-n1cc(C)c(=O)c(C)c1-c1ccccc1 [Compound 518] | L (L shows the control value of 50% or less) | L (L shows the control value of 50% or less) | L (L shows the control value of 50% or less) | H (H shows the control value of more than 50%) | L (L shows the control value of 50% or less) | 
Cc1c(F)cccc1-n1cc(Br)c(=O)c(C)c1-c1ccccc1 [Compound 412] | H (H shows the control value of more than 50%) | L (L shows the control value of 50% or less) | L (L shows the control value of 50% or less) | H (H shows the control value of more than 50%) | H (H shows the control value of more than 50%) | 
COc1ccc(C)c(-n2cc(C)c(=O)c(C)c2-c2c(F)cc(F)cc2F)c1 [Compound 313] |  |  |  |  |  | Test C control value [1, 6]: H (H shows the control value of more than 50%); Test G control value ([2]; 250 ppm spray (2.5 ml/pot)): H (H shows the control value of more than 50%); Test D control value [3, 7]: H (H shows the control value of more than 50%); Test B control value [4, 8]: H (H shows the control value of more than 50%); Test E control value [5, 9]: H (H shows the control value of more than 50%)
COc1cc(F)c(-c2c(Br)c(=O)c(Cl)cn2Cc2ccccc2Cl)c(F)c1 [Compound 88] |  |  |  |  |  | Test C control value class (cabbage Alternaria sooty spot) [1, 6]: H (H shows the control value of more than 50%); Test G control value class (grape downy mildew) ([2]; 250 ppm spray): H (H shows the control value of more than 50%); Test D control value class (barley powdery mildew) [3, 7]: L (L shows the control value of 50% or less); Test B control value class (tomato gray mold) [4, 8]: H (H shows the control value of more than 50%); Test E control value class (wheat brown rust) [5, 9]: H (H shows the control value of more than 50%)
CCc1c(-c2c(F)cc(OC)cc2F)n(CC(C)C)cc(C)c1=O [Compound 232] |  |  |  |  |  | Test C control value [1, 6]: H (H shows the control value of more than 50%); Test G control value ([2]; 250 ppm spray (2.5 ml/pot)): L (L shows the control value of 50% or less); Test D control value [3, 7]: H (H shows the control value of more than 50%); Test B control value [4, 8]: H (H shows the control value of more than 50%); Test E control value [5, 9]: H (H shows the control value of more than 50%)
CCc1c(-c2c(F)cc(F)cc2F)n(-c2cccc(Cl)c2C)cc(C)c1=O [Compound 547] | H (H shows the control value of more than 50%) | H (H shows the control value of more than 50%) | H (H shows the control value of more than 50%) | H (H shows the control value of more than 50%) | H (H shows the control value of more than 50%) | 
CCc1c(-c2ccc(F)cc2C)n(-c2ccccc2)cc(Br)c1=O [Compound 622] | H (H shows the control value of more than 50%) | H (H shows the control value of more than 50%) | L (L shows the control value of 50% or less) | L (L shows the control value of 50% or less) | L (L shows the control value of 50% or less) | 
Cc1ccc(N(C)C)cc1-n1cc(Br)c(=O)c(Cl)c1-c1c(F)cc(F)cc1F [Compound 373] | H (H shows the control value of more than 50%) | L (L shows the control value of 50% or less) | L (L shows the control value of 50% or less) | L (L shows the control value of 50% or less) | L (L shows the control value of 50% or less) | 
Cc1ccc(F)cc1-n1cc(C)c(=O)c(C)c1-c1c(F)cc(F)cc1F [Compound 455] | H (H shows the control value of more than 50%) | H (H shows the control value of more than 50%) | H (H shows the control value of more than 50%) | H (H shows the control value of more than 50%) | H (H shows the control value of more than 50%) | 
O=c1c(Br)cn(-c2ccccc2F)c(-c2c(F)cc(F)cc2F)c1Cl [Compound 20] |  |  |  |  |  | Test C control value class (cabbage Alternaria sooty spot) [1, 6]: H (H shows the control value of more than 50%); Test G control value class (grape downy mildew) ([2]; 250 ppm spray): L (L shows the control value of 50% or less); Test D control value class (barley powdery mildew) [3, 7]: L (L shows the control value of 50% or less); Test B control value class (tomato gray mold) [4, 8]: H (H shows the control value of more than 50%); Test E control value class (wheat brown rust) [5, 9]: H (H shows the control value of more than 50%)
COc1cccc(-n2cc(C)c(=O)c(C)c2-c2c(F)cccc2F)c1 [Compound 605] | H (H shows the control value of more than 50%) | L (L shows the control value of 50% or less) | H (H shows the control value of more than 50%) | H (H shows the control value of more than 50%) | H (H shows the control value of more than 50%) | 
CCc1ccc(OC)cc1-n1cc(Br)c(=O)c(CC)c1-c1c(F)cccc1F [Compound 627] | H (H shows the control value of more than 50%) | H (H shows the control value of more than 50%) | H (H shows the control value of more than 50%) | H (H shows the control value of more than 50%) | H (H shows the control value of more than 50%) | 
Cc1cccc(C)c1-n1cc(Br)c(=O)c(Cl)c1-c1ccccc1 [Compound 452] | L (L shows the control value of 50% or less) | L (L shows the control value of 50% or less) | L (L shows the control value of 50% or less) | L (L shows the control value of 50% or less) | L (L shows the control value of 50% or less) | 
Cc1cn(-c2ccccc2)c(-c2cccc(F)c2F)c(C)c1=O [Compound 615] | H (H shows the control value of more than 50%) | H (H shows the control value of more than 50%) | L (L shows the control value of 50% or less) | H (H shows the control value of more than 50%) | H (H shows the control value of more than 50%) | 
CCc1c(-c2ccccc2)n(-c2ccccc2)cc(C)c1=O [Compound 559] | H (H shows the control value of more than 50%) | H (H shows the control value of more than 50%) | H (H shows the control value of more than 50%) | L (L shows the control value of 50% or less) | L (L shows the control value of 50% or less) | 
O=c1c(Cl)cn(-c2ccc(F)cc2Cl)c(-c2c(F)cccc2F)c1Cl [Compound 99] |  |  |  |  |  | Test C control value class (cabbage Alternaria sooty spot) [1, 6]: H (H shows the control value of more than 50%); Test G control value class (grape downy mildew) ([2]; 250 ppm spray): L (L shows the control value of 50% or less); Test D control value class (barley powdery mildew) [3, 7]: L (L shows the control value of 50% or less); Test B control value class (tomato gray mold) [4, 8]: H (H shows the control value of more than 50%); Test E control value class (wheat brown rust) [5, 9]: H (H shows the control value of more than 50%)
